Measured values: publication PMC8496693
These are yes or no findings as the source states them, for the method shown. In cells and extracts the contact can be indirect. Where a sequence is shown, tags or fusion partners need not be part of it.

Molecular target: EGFP-PDE6D (human) (UniProt O43924)
Test: co-IP; visible immunoprecipitation (VIP) assay followed by immunoblotting (anti-mChe, anti-GFP); lysates of HEK293T cells coexpressing two fluorescent fusion proteins; EGFP fusion precipitated with GST-fused anti-GFP nanobody prebound to glutathione-Sepharose beads; lysis buffer 50 mM HEPES pH 7.4, 100 mM KCl, 1 mM DTT, 5 mM NaCl, 3 mM MgCl2, 0.5% Triton X100, 10% glycerol

binding: no binding
B1: mChe-fused INPP5E(1-626) (domain or fragment, UniProt Q9NRR6 1-626)
chain: MPSKAENLRPSEPAPQPPEGRTLQGQLPGAPPAQRAGSPPDAPGSESPALACSTPATPSGEDPPARAAPIAPRPPARPRLERALSLDDKGWRRRRFRGSQEDLEARNGTSPSRGSVQSEGPGAPAHSCSPPCLSTSLQEIPKSRGVLSSERGSPSSGGNPLSGVASSSPNLPHRDAAVAGSSPRLPSLLPPRPPPALSLDIASDSLRTANKVDSDLADYKLRAQPLLVRAHSSLGPGRPRSPLACDDCSLRSAKSSFSLLAPIRSKDVRSRSYLEGSLLASGALLGADELARYFPDRNVALFVATWNMQGQKELPPSLDEFLLPAEADYAQDLYVIGVQEGCSDRREWETRLQETLGPHYVLLSSAAHGVLYMSLFIRRDLIWFCSEVECSTVTTRIVSQIKTKGALGISFTFFGTSFLFITSHFTSGDGKVAERLLDYTRTVQALVLPRNVPDTNPYRSSAADVTTRFDEVFWFGDFNFRLSGGRTVVDALLCQGLVVDVPALLQHDQLIREMRKGSIFKGFQEPDIHFLPSYKFDIGKDTYDSTSKQRTPSYTDRVLYRSRHKGDICPVSYSSCPGIKTSDHRPVYGLFRVKVRPGRDNIPLAAGKFDRELYLLGIKRRISKEI
